The values below come from article doi:10.1101/153403, “Structure of the human pro-myostatin precursor and determinants of growth factor latency” (bioRxiv, 2017).

As usually defined, the stoichiometry N is a count of units in the complex or per binding partner.

Data set [1] deals with the molecule itself. Put plainly: SEC-MALS; Superdex 200 Increase 10/300, 20 mM Tris pH 8.0, 150 mM NaCl, 100 μl of sample at 1-1.5 mg/ml.
Data set [2] concerns the molecule itself. Put plainly: crystal structure; sitting drops at 19°C; proMSTN-Δ43 in 0.1 M Na acetate pH 4.2, 1 M ammonium phosphate; proMSTNΔ43-mut in 10% PEG 6K, 0.1 M HEPES pH 7.0.

B1: unprocessed human pro-myostatin (pro-MSTN) (natural protein)
chain: not shown
notes: human pro-myostatin (GDF8) lacking the signal peptide, […]; native furin site intact; pHAT2 vector; Disulfide-linked homodimer; also called uncleaved pro-myostatin; pro-GDF8; not shown: His tag, N-terminal, kept
Regarding B1, the “stoichiometry N” value in data set [1] worked out at 2.

B2: wild-type human pro-myostatin with N terminal truncation (proMSTN-Δ43) (domain or fragment)
chain: not shown
modifications: selenomethionine (SeMet-labelled protein used for phasing of the 4.2 Å structure)
notes: native furin site intact; also called SeMet-labelled proMSTN-Δ43; not shown: His tag, N-terminal, cleaved
B2: in data set [2], the binding result was “binds”.
